From the supplement of paper PMC12217912
This is one part of the list. The full chains were built here from the parent and the listed change. Values near 0.05 are background.

B1: TEV protease; numbered along this chain (parent)
chain: MGESLFKGPRDYNPISSSICHLTNESDGHTTSLYGIGFGPFIITNKHLFRRNNGTLVVQSLHGVFKVKDTTTLQQHLVDGRDMIIIRMPKDFPPFPQKLKFREPQREERICLVTTNFQTKSMSSMVSDTSCTFPSGDGIFWKHWIQTKDGQCGSPLVSTRDGFIVGIHSASNFTNTNNYFTSVPKNFMELLTNQEAQQWVSGWRLNADSVLWGGHKVFMVKPEEPFQPVKEATQL

Variants of: B1
Test: raw area under fraction-flipped curve 0-4 h after induction (AUC4h, not background-subtracted), DNA-recorder readout of cleavage of the substrate (dimensionless); higher = more cleavage of the substrate by the protease variant
Details: temperature: 34 °C; time window: 0-4 h after rhamnose induction
Experimental: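 In vivo DNA recorder in E. coli TOP10(DE3) ΔrhaA at 34 °C. Each TEVp single-site mutant (parent TEVp 0) is paired with a single-site variant of the 7-mer TEVs (canonical ENLYFQ|S). The substrate sits between flexible linkers in a Bxb1-sfGFP-TEVs-SsrA fusion, so cleavage stabilises Bxb1 and speeds flipping of a recombination array, read by NGS. The value is the raw area under the fraction-flipped curve over 0-4 h after rhamnose induction (AUC4h), with ≥20 reads per time point. It is not background-subtracted; inactive controls average about 0.047.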
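Further: Bxb1 expression induced with 0.2% (w/v) L-rhamnose at OD600 near 0.5, cultures sampled hourly, flipped fraction per protease–substrate barcode pair counted by paired-end Illumina sequencing.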

Variant	area with substrate ENLAFQS	area with substrate ENLCFQS	area with substrate ENLDFQS	area with substrate ENLEFQS	area with substrate ENLFFQS	area with substrate ENLHFQS	area with substrate ENLIFQS	area with substrate ENLKFQS	area with substrate ENLLFQS	area with substrate ENLMFQS	area with substrate ENLNFQS	area with substrate ENLPFQS	area with substrate ENLQFQS	area with substrate ENLRFQS	area with substrate ENLTFQS	area with substrate ENLSFQS	area with substrate ENLWFQS	area with substrate ENLGFQS	area with substrate ENLVFQS
V113P	0.0512	0.0669	0.0543	0.0546	0.0621	0.0631	0.0601	0.0627	0.0605	0.0381	0.0431	0.05	0.0605	0.0754	0.0549				
I85P	0.0308		0.0387	0.0589	0.0215	0.0233	0.0415		0.0409		0.0298	0.0413	0.0364	0.0394	0.0509	0.0154	0.0231		
T72D	0.0651	0.0347	0.073	0.0631	0.0862	0.0673		0.0737		0.071	0.0656	0.072		0.0567	0.0618	0.049	0.047	0.0743	0.066
Q74V	0.0671	0.0631	0.0568	0.0557	0.0654	0.0479		0.0672	0.0559		0.0637		0.0613	0.0514	0.0514	0.0573	0.0616		
D69W	0.0732	0.0629	0.063	0.0742	0.0755	0.0757	0.0712	0.0637					0.0636			0.0583	0.0671	0.0788	0.0728
D69L	0.0831	0.0584	0.0567	0.0617	0.0712	0.065	0.0762	0.0705	0.0507	0.0664	0.076	0.0582		0.0616		0.0602		0.0629	
Q118T	0.081		0.105			0.0772		0.0745	0.0347		0.0583		0.0562		0.0712	0.0625	0.0638		
M125N	0.0681	0.0685	0.0656		0.0925	0.0707	0.0595	0.0672	0.0641	0.0654	0.0659	0.0574	0.055	0.0775		0.0772			0.0834
M125T	0.0586	0.0674	0.0627	0.0668	0.106	0.0741	0.0748	0.083	0.0468	0.0962	0.0629	0.0672	0.0769	0.0912	0.0742	0.0486	0.0723	0.103	0.0691
M125V	0.0743	0.073		0.0668	0.0901	0.0747		0.0507	0.0465	0.0709	0.0592			0.0773		0.0622	0.0699	0.0565	
M122E	0.0736		0.0862		0.096					0.0723	0.0651	0.066	0.0684			0.0608	0.0657	0.0662	0.0826
V78C	0.0936	0.0756	0.0364	0.0623	0.0993	0.0838	0.0949	0.0734	0.0688		0.045		0.0821	0.0917		0.0628	0.0712	0.0542	0.0928
V78S	0.0549	0.0505	0.0517	0.0602	0.0571	0.0558		0.0625	0.0634		0.056	0.0834		0.0465		0.0563	0.0504	0.0414	0.0355
V78F	0.0688		0.0627	0.0504			0.0647		0.0816		0.0561	0.048	0.0596	0.0606	0.0802	0.0619			
K98I	0.0704		0.0711	0.0606	0.0978	0.0716	0.0719	0.0786		0.0601	0.0621	0.0799		0.0796		0.0591	0.0695	0.0647	0.0638
R102C	0.0639		0.0536	0.0468	0.0532	0.0431	0.0566	0.0616	0.0662	0.0407	0.0648			0.0601		0.0551	0.0571	0.0626	
R102T	0.0464	0.0342	0.0643	0.0747	0.0333	0.0511	0.0571	0.0737	0.0422	0.0593	0.0486		0.0635	0.0504		0.0597			
Q105C	0.0662	0.0884	0.0647	0.0672		0.0779	0.078	0.0937	0.0582		0.0789			0.0552		0.0659	0.0731		
S123M	0.0627	0.0746	0.0739	0.0653	0.0947		0.0842	0.0791	0.0616		0.0693	0.0616		0.088		0.0729	0.0652		
F117H	0.0659		0.0657	0.0645	0.0965	0.0875	0.122	0.0861	0.0502		0.0635	0.0608	0.0666		0.0507	0.0683	0.0757		0.0827
T70S	0.0629	0.0635	0.0751	0.0655	0.0786	0.0624	0.0583	0.074	0.0565		0.0587	0.055	0.05	0.0826		0.0868	0.0632	0.0549	
F92H	0.0672		0.0644		0.0899			0.0795	0.0677		0.0667	0.0496	0.0777	0.0898					
I84W	0.0571	0.061	0.0503		0.0478	0.0577	0.0627	0.0544	0.0057		0.0456	0.0522	0.0731	0.0504		0.0545	0.0516		0.0415
E107W	0.0724		0.0612		0.109	0.0843	0.0667	0.0636		0.0583	0.0573							0.0664	0.1
D91P	0.041	0.0783	0.0616		0.0396		0.0769	0.0799	0.0828			0.0686	0.0541	0.0803		0.0442			0.0822
